Measurements as given in PMC4336329 (PLoS ONE, 2015).
The whole screen tested about 310,000 compounds, of which about 2,200 (0.71%) showed an effect of 50% or more. The effect is printed as a negative number. The list shows a part of the results.

These molecules were tested against human ether-à-go-go-related gene (hERG) potassium channel (human, UniProt Q12809) (assay: primary screen, population patch clamp on CHO cells stably expressing hERG).
Chain of human ether-à-go-go-related gene (hERG) potassium channel (Q12809 whole entry, looked up): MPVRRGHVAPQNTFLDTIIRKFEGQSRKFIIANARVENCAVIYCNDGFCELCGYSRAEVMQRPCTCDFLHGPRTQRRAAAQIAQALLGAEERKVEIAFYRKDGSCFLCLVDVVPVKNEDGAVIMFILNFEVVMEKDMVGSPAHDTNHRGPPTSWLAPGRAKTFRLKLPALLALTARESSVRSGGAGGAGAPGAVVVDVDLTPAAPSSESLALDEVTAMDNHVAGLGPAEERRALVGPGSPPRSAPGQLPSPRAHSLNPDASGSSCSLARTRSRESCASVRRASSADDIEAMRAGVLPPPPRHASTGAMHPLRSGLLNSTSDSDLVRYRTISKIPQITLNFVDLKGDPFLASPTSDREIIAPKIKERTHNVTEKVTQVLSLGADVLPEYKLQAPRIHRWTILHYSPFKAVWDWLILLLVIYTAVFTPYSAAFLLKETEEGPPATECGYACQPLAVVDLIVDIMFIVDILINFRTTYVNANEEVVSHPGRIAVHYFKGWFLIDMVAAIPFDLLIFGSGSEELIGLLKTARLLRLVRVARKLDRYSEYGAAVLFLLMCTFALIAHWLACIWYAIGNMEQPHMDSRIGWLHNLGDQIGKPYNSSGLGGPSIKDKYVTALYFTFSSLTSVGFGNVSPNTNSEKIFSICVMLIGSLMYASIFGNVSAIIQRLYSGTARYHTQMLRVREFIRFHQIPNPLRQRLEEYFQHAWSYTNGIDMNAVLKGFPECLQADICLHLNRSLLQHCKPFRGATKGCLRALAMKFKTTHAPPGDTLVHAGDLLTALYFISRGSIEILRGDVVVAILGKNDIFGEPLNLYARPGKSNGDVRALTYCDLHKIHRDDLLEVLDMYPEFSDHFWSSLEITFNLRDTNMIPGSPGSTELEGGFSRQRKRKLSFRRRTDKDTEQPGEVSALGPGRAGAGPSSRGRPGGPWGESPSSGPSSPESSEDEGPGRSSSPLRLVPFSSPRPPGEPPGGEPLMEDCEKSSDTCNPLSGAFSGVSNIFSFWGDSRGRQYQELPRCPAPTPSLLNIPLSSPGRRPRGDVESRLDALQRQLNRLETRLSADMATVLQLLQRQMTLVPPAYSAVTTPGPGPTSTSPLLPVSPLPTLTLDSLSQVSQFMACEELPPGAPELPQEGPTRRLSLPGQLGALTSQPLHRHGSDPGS

SMILES	hERG current change (%, negative = inhibition) at 1uM
O=C(Cn1c(=O)oc2cc(S(=O)(=O)N3CCCCC3)ccc21)N1CCc2ccccc2C1	6.3%
Cn1c(Cc2cccs2)nnc1SCC(=O)Nc1ccc(F)cc1F	8.91%
COc1ccccc1NCc1nnc(SCC(=O)N/N=C/c2ccco2)n1-c1ccc(Cl)cc1Cl	11.8%
COc1ccc(N2CCN(C(=O)c3ccc(S(=O)(=O)N4CCCC4)cc3)CC2)cc1	13.2%
CN(C)S(=O)(=O)N1CCN(C(=O)c2ccccc2Cl)CC1	3.56%
COc1ccccc1C(C(=O)NC1CCCCC1)N(C(=O)c1csnn1)C1CC1 (centres unmarked)	4.88%
O=C(c1ccccc1)n1c(=S)nc2ccccn21	10.3%
CSc1ccc(/C=C/C(=O)OCC(=O)N(C)CCC#N)cc1	-2.52%
CCS(=O)(=O)c1nc2ccccc2n1CC(=O)N1CCCCC1	15.3%
CC(C)(C)N/N=C1\CC(c2ccccc2)Oc2ccccc21.Cl (centres unmarked)	5.81%
O=C1CCC(=O)N1c1ccc(NCc2ccccc2Cl)c([N+](=O)[O-])c1	3.68%
CC(NC(=O)Cn1cnnn1)c1cccc(C(F)(F)F)c1 (centres unmarked)	15.1%
O=C(C[n+]1ccccc1)Nc1ccccc1[N+](=O)[O-].[Cl-]	21.9%
COc1ccc(CN2C3CCCC2CC(NC(=O)Nc2ccccc2)C3)cc1 (centres unmarked)	-64%
O=C(NCc1ccccc1)NS(=O)(=O)c1ccccc1Cl	5.09%
O=C(c1ccsc1)N1CCCC(Nc2cccc(F)c2)C1 (centres unmarked)	3.86%
CCCOC(=O)CCn1c(=S)oc2ccccc21	9.89%
O=[N+]([O-])c1ccc(OCCO)c(P(=O)(c2ccccc2)c2ccccc2)c1	11.9%
COc1ccccc1CNC(=O)C1CCN(C(=O)c2sccc2-n2cccc2)CC1	16.2%
O=C(Cn1c(COc2ccccc2)nc2ccccc21)Nc1cc(Cl)ccc1Cl	11.5%
C#CC(=O)N(c1cc(OC)ccc1OC)C(C(=O)NC1CCCC1)c1cccs1 (centres unmarked)	4.6%
COc1cc2sc3ccc(C#Cc4ccc(N)cc4)cc3c(=O)c2cc1OC	15.5%

SMILES	hERG current change (%, negative = inhibition) at 1uM
CSCCC(NS(=O)(=O)c1ccc2c(c1)OCCO2)C(=O)N(C)Cc1ccc(F)cc1 (centres unmarked)	11.5%
CN(C)CC/C=C1\c2cc(F)ccc2CSc2ccccc21.O=C(O)/C=C\C(=O)O	-0.682%
COc1ccccc1C(=O)C1CCCN(C(=O)c2snnc2C)C1 (centres unmarked)	12.9%
Cc1c(Cl)cccc1NC(=S)N(CCN(C)C)C(C)c1ccco1 (centres unmarked)	-6.45%
CC1=C(C(=O)OCCC(C)C)C(c2ccc3c(c2)OCO3)NC(=O)N1 (centres unmarked)	9.63%
O=c1[nH]cc(NCCc2ccccc2)c(=O)[nH]1	10.9%
COc1ccccc1/C=C/C=N/NC(=O)CCn1cnc2ccccc21	3.08%
Cc1ccc(-c2nn(-c3ccccc3)cc2/C=C2\SC(=S)N(CCCCCC(=O)O)C2=O)o1	12%
CC1CN(C(=O)Nc2ccc(F)cc2F)CC(C)O1 (centres unmarked)	-1.61%
Cc1nnsc1-c1c(C(=O)N2CCOCC2)c(C)nn1-c1ccccc1	10.1%
COC(=O)c1c(C)[nH]c(C(=O)OC(C)C(=O)N(C)C2CCCCC2)c1C (centres unmarked)	3.68%
CC(Cc1c[nH]c2ccccc12)NC(=O)OCCCl (centres unmarked)	16.9%
C=CCn1c(CNC(=O)CCC)nc2ccccc21	15.7%
C=CCn1c(=O)[nH]c2cc(C(=O)N3CCN(c4ccc(C(C)=O)cc4)CC3)ccc2c1=O	-0.651%
CC1CN(S(=O)(=O)c2cccc(C(=O)OCC(=O)NCc3ccccc3)c2)CC(C)O1 (centres unmarked)	5.46%
COc1ccccc1NC(=O)C(C)OC(=O)CCSc1ccc(F)cc1 (centres unmarked)	5.73%
CC(=O)Nc1ccc(S(=O)(=O)NNC(=O)c2cccc([N+](=O)[O-])c2)cc1	12.6%
CC(C(=O)N1CCCc2ccccc21)N1C(=O)c2ccccc2C1=O (centres unmarked)	-9.98%
CC(C)(C)C1CCC(=NNC(=O)C(=O)NC2CCCCC2)CC1 (centres unmarked)	7.44%
Cc1ccc(S(=O)(=O)N(C)C)cc1NC(=O)COC(=O)CCC(=O)c1cccs1	3.75%
CC(C)(C)[C@@H]1C=C(C(=O)N2CCOCC2)O[C@H](OCc2ccc(CO)cc2)C1	2.37%
Cc1ccc(C(=O)NNC(=O)C2CCN(Cc3ccc(Cl)c(Cl)c3)CC2)cc1	9.55%

SMILES	hERG current change (%, negative = inhibition) at 1uM
CCc1ccc(-n2c(O)c(/C=N/NC(=O)c3ccncc3)c(=O)[nH]c2=O)cc1	12.1%
O=C(Nc1ccc(N2CCN(C(=O)c3ccco3)CC2)cc1)c1cccs1	-2.67%
Cc1cccc(C)c1NC(=O)CNC(=O)C(Cc1ccccc1)NC(=O)c1ccccc1 (centres unmarked)	17.4%
Cc1ccccc1NC(=O)CN1C(=O)CSc2ccccc21	16.7%
Cc1nn(CC(=O)Nc2ccc(Cl)cc2Cl)c(=O)c2ccccc12	12.8%
CN(C)CCn1c2c(c(SCC(=O)NCc3ccccc3)nc1=O)CCCC2	5.22%
CCCCc1cc(=O)oc2c(C)c(OCC(=O)N3CCC(C(=O)O)(c4ccccc4)CC3)ccc12	9.44%
CCN(CC)c1ccc2cc(C=O)c(=O)oc2c1	29.7%
Cc1ccc(NC(=O)C2C3C=CC4(O3)C2C(=O)N(CCCN2CCCCC2)C4C(=O)NC2CCCCC2)cc1C (centres unmarked)	22.2%
CC(C(=O)Nc1ccc(Cl)cc1Cl)N1C(=O)NC2(CCCCCCC2)C1=O (centres unmarked)	9.52%
Cc1cccc(N2CCN(C(=O)c3ccc4c(c3)NC(=O)C(CSCc3cccc(F)c3)N4)CC2C)c1 (centres unmarked)	11.6%
O=C(Cc1cccs1)N(Cc1cccs1)C1(C(=O)NC2CCCCC2)CCCCC1	6.3%
CCC(=O)Nc1cccc(Oc2nc(C)cc(C)c2C#N)c1	4.77%
CN(C)CCNC(=O)c1onc(CSc2ccc(F)c(F)c2)c1C(=O)NCCN(C)C	14.5%
Clc1ccc(-c2nnc(-c3cccnc3)o2)cc1	3.21%
COc1ccc2[nH]c(CN3CCC(CO)(CCOc4ccccc4)CC3)c(C)c2c1	9.37%
CN(CC(=O)Nc1ccc(N2CCOCC2)cc1)C(=O)CC(c1ccccc1)c1ccccc1	11.4%
Cc1ccc(CNC(=O)[C@@H](NC(=O)C2CCN(C(=O)[C@@H](N)CC(C)C)CC2)C(C)C)cc1	18.8%
O=C(NC1CCCN(Cc2ccc(Cl)cc2)C1)C1CCC1 (centres unmarked)	6.34%
CCOc1ccc(S(=O)(=O)NCCC(=O)NCC(c2ccccc2OC)N2CCCC2)cc1 (centres unmarked)	7.53%
CCc1ccc([C@@H]2CC=C(C(=O)O)[C@H](c3ccc(F)cc3)N2S(=O)(=O)c2ccc(C)cc2)cc1	14.1%
Cc1c(NC(=O)COC(=O)C2(c3ccccc3F)CCCC2)c(=O)n(-c2ccccc2)n1C	9.55%

SMILES	hERG current change (%, negative = inhibition) at 1uM
COc1ccc(-c2cn3ccsc3n2)cc1	6.43%
O=C(CCC1CCCC1)NCCS(=O)(=O)N1CCN(c2ccccc2F)CC1	4%
c1ccc(CNCCC(Cc2ccccc2)c2ccco2)cc1 (centres unmarked)	5.58%
CCCCN(C)C(=O)c1sc2ncn(CC)c(=O)c2c1C	1.68%
Cl.OCCNCc1cccc(OCc2ccccc2Cl)c1	-2.16%
COc1cc(CC(=O)OCC(=O)Nc2ccc(S(=O)(=O)N3CCCC3)cc2)cc(OC)c1OC	10.2%
O=C(CC1C(=O)NCCN1CCCc1ccccc1)NCCc1ccccc1Cl (centres unmarked)	3.91%
O=[N+]([O-])c1cccc2c(S(=O)(=O)N3CCCCC3)cccc12	14%
CC(C)N1CCN(Cc2ccncc2)CC1CCO (centres unmarked)	12.2%
COC(=O)CSc1nnc(C2COc3ccccc3O2)n1-c1ccccc1 (centres unmarked)	11.6%
Cn1cc(C(=O)c2ccc(Cl)cc2Cl)cc1C(=O)N/N=C(\N)COc1ccc(Cl)cc1	1.05%
COC(=O)c1ccc(NC(=O)C2CCCN(S(=O)(=O)c3cnc[nH]3)C2)cc1 (centres unmarked)	5.36%
CC1c2[nH]c3ccccc3c2C[C@H]2C(=O)N(CCO)CC(=O)N12 (some centres unmarked)	3.81%
O=c1cc(CO)oc(C(Nc2ccccn2)c2ccccc2F)c1O (centres unmarked)	16%
Cc1ccc(Cl)cc1N1CCN(CC(=O)Nc2ccc3[nH]c(=O)[nH]c3c2)CC1	16.5%
Cn1nc(C(F)(F)F)c(C(=O)Nc2ccc(F)cc2F)c1Sc1cccc(C(F)(F)F)c1	7.19%
Cc1cc(C(=O)CSc2ccccc2)cc(C)c1O	14.9%
OCCCNC(=S)Nc1ccc2nc(-c3ccccn3)c(-c3ccccn3)nc2c1	9.44%
CCOC(=O)N1CCC(c2nc3ccccc3[nH]2)CC1	14.6%
O=C(Nc1ccc(Cl)cc1)Nc1nnc(CSCc2ccccc2)s1	15.6%
